Results are given in words; binding and its absence hold for the method and conditions named. In cells and extracts the contact can be indirect. Some entries that bind do so weakly or less than the wild type.
Key:
GST-p6 (HIV-1) [1] = molecular target: GST-p6 (HIV-1) (UniProt P04591); assay: pull-down; GST-tagged Gag fragment on GSH-Sepharose incubated overnight with extract of HEK293 cells expressing epitope-tagged ALIX or TSG101, 400 mM NaCl, 1 mg/ml BSA; only the target purified
[2] = molecular target: Gag(Δp6)-GFP (expressed in HEK293 cells) (HIV-1) (UniProt P04591); assay: co-IP; GFP-tagged Gag version immunoprecipitated from HEK293 lysate with polyclonal anti-GFP and Protein A-Sepharose, 50 mM Tris pH 7.5, 150 mM NaCl, 1% Triton, 10% glycerol, 4 °C overnight; ALIX or TSG101 detected by its epitope tag
[3] = molecular target: Gag(Δp6)-GFP (expressed in HEK293 cells) (HIV-1) (UniProt P04591); assay: co-IP; as the HEK293 co-IP but with 400 mM NaCl (Fig. S8 C, D)
[4] = molecular target: MA-GFP (expressed in HEK293 cells) (HIV-1) (UniProt P04591); assay: co-IP; MA-GFP immunoprecipitated from HEK293 lysate with anti-GFP; NaCl as indicated in Figure 4E
GST-MA (HIV-1) = GST-MA (HIV-1) (UniProt P04591); assay: pull-down; GST-tagged Gag fragment on GSH-Sepharose incubated overnight with extract of HEK293 cells expressing epitope-tagged ALIX or TSG101, 150 mM NaCl, 1 mg/ml BSA; only the target purified
GST-p6 (HIV-1) [5] = molecular target: GST-p6 (HIV-1) (UniProt P04591); assay: as above

Amino acid sequences for entries named in this document (tags omitted).
UniProt Q8WUM4: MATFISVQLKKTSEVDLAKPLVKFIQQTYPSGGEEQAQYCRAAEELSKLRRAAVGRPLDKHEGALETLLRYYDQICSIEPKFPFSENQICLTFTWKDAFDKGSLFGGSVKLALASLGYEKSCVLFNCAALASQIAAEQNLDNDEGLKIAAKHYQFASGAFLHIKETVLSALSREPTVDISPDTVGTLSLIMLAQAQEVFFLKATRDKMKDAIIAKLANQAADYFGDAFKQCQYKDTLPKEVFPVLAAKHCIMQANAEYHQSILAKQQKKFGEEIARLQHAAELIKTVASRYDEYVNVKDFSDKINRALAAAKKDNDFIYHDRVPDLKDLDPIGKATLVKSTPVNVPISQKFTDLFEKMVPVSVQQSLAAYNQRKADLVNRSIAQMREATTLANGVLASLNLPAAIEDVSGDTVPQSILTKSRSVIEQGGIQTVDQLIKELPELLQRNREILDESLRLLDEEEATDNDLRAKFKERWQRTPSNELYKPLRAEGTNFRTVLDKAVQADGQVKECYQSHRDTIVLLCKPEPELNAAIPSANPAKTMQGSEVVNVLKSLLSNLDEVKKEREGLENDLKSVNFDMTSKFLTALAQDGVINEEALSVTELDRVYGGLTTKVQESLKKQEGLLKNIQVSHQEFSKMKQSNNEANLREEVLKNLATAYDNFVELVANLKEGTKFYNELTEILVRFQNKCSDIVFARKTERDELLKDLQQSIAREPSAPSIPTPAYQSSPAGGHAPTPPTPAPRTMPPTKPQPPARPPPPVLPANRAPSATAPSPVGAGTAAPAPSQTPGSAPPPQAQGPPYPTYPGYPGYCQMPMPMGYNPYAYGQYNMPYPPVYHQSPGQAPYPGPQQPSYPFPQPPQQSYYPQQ
UniProt Q99816: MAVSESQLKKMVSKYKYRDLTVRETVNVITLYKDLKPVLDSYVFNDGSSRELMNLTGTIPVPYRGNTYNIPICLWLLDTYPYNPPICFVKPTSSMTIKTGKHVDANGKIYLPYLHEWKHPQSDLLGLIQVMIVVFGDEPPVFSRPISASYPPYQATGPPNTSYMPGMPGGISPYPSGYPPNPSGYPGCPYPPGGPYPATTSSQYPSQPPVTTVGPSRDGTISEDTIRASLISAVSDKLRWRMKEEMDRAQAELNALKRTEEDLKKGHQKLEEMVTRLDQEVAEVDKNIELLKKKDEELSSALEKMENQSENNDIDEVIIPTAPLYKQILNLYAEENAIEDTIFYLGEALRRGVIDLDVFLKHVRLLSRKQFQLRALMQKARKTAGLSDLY

Measured: binding

ALIX (epitope-tagged) (from UniProt Q8WUM4 1-868)
binds: GST-p6 (HIV-1) [1] | [2] | [3] | [4] | GST-MA (HIV-1) | GST-p6 (HIV-1) [5]

TSG101 (epitope-tagged) (from UniProt Q99816 1-390)
binds: GST-p6 (HIV-1) [1] | GST-MA (HIV-1) | GST-p6 (HIV-1) [5]
